Measurements reported in the supplement of paper PMC10300432.
Where a chain is given by its changes, count along the chain named. Recombinant human monoclonal antibodies (heavy:light variable regions). ELISA EC50 on the named antigen, from 10 µg/ml down; IC50 against spike pseudovirus on HT1080-ACE2 cells, 48 h; lower = stronger. Calls: IC50 above 1,000 ng/ml = non-neutralizing; EC50 above 1,000 ng/ml = non-binder.

B1: C5126 (protein)
chain 1: QVQLVQSGAEVKKPGASVKVSCKASGYTFTNQYMHWVRQAPGQGLEWMGIINPDGGSISYAQKFQGRVTMTRDTSTSTVYMELSSLRSEDTAVYYCARDQAFIVDSGAFDIWGQGTMVTVSS
chain 2: DIQMTQSPSTLSASVGDRVTITCRASQSMSNKLAWYQQKPGKAPKLLIYKASTLESGVPSRFSGSGSGTEFTLTISSLQPDDFATYYCQQYNSYSRTFGQGTKVEIK
B2: C5127 (protein)
chain 1: QVQLVQSGDEMKKPGASVRVSCKASGYTFASYGFTWVRQAPGQGLEWMGWISPSNGYTNYAQKLQGRVTMTTDSSTNTAYMELRSLRSDDTAVYYCARLDCISSSCYGYHYYGMDVWGQGTTVTVSS
chain 2: QSVLTQPPSASGTPGQRVTISCSGSSSSIASSTVNWYQQLPGTAPKLLIYSNSQRPSGVPDRFSGSKSGTSASLAISGLQSEDEADYFCAAWDDSLNGPWVFGGGTKLTVL
B3: C5035 (protein)
chain 1: QVQLVQSGAEVKKPGSSVKVSCKASGGTFSTYGISWVRQAPGQGFEWMGGIIPTLDTAIYAQKFQGKVTITADESTSTAYMELNSLRSEDTAVYYCARHGPTYSTVLTGYFAFDYWGQGILVTVSS
chain 2: QTVVTQEPSLTVSPGGTVTLTCASSTGPVTSGYYPNWFQKKPGQAPRALIYSTSNKHSWTPARFSGSLLGGKAALTLSGVQPEDEAEYYCLLYYGSSQEWVFGGGTKLTVL
B4: C5131 (protein)
chain 1: QVQLVQSGGGLVQPGGSLRLSCAASEIIVSSNYMSWVRQAPGKGLEWVSTVYSGGSTFYADSVKGRFTISRDKSKNILYLQMANLRVEDMAVYYCVRGDGSDNFYYGMDVWGQGTTVTVS
chain 2: QSVLTQPPSVSGAPGQRVTISCTGSTSNIGAGYDIHWYQQVPGTSPKLLIYANTNRPSGVPDRFSGSKSGTSASLTITGLQAEDEADYYCQSYDSSLRYVIFGGGTTLTVL
B5: C5132 (protein)
chain 1: QVQLQQWGAGLLKPSETLSLTCAVYGGSFSSYSWSWIRQPPGKGLEWIGEINDSGITNYNPSLKSRVTMSVDTSKNQLSLKLSSMTAADTAVYFCARDIVVLLPAAGGRRYYSYIDVWGTGTTVTVSS
chain 2: DIQMTQSPSTLSASIGDRVTITCRASQSITSYLNWYQQKPGRAPKVLIYATSSLQSGVPSRFSGSGSGADFTLTISSLQPEDFATYYCQQSYTTPYTFGQGTKLEI
B6: C5133 (protein)
chain 1: B5 chain 1
chain 2: DIQMTQSPSSLPVSVGDRVTITCQASQDIDKNLNWYQQKPGKAPKLLIYDASNLETGVPSRFSRSGSGTDFSFTISSLQPEDIATYYCQQYDSLPITFGQGTRLEIK
B7: C5134 (protein)
chain 1: QVQLVESGGGVVRPGRSLRLSCAASGFTFSDYVIHWVRQAPGKGLEWVAAISSDGKIKDYGDSVKGRFIISRDNSKNTLYLQMNSLRHEDTAVYYCARDSRQIVDYLDYWGQGTLVTVSS
chain 2: DIQMTQSPSSLSASVGDRVTITCRASQTISNYLNWYQQTPGKAPKLLVYAATSLQTGVPLRFSGSGSGTSFTLTISSLQPEDFATYYCQQTYTTPQTFGQGTKVEIK
B8: C5135 (protein)
chain 1: QVQLQESGPGLVKPSQTLSLTCTVSGGSISSGDYYWSWLRQSPGKGLEWIGYISYSGTTDYNPSLKSRLTISMATSMNQFSLKLSSVTAADTAVYYCARVQGVDSSGNFFQYYFDNWGRGALVTVSS
chain 2: EIVLTQSPGTLSLSPGERATLSCRASLSISSGFLAWYQQKPGQAPRLLIYGASSRATGIPDRFSGSGSGTVFTLTISRLEPEDFAVYYCQQYSGSPLTFGGGTKVEIK
B9: C5136 (protein)
chain 1: QVQLQESGPGLVRPSQTLSLTCTVSGGSISNADYFWSWIRQPPGKGLEWIGYISYSGNTDYKPSLKSRLSMSVETSKNRFSLHLSSVTAADTAVYFCARVQGVDSSGNFFQYYFDHWGQGTLVTVSS
chain 2: B8 chain 2 with G32D, S54N, S66R, V71D, G94F
B10: C5137 (protein)
chain 1: QVQLVQSGAELKKPGASVKVSCKTSGYTFDRYGLSWVRQAPGQGLEWLGWISAKNGDTKSVQKLQGRVTMTTDTFTNTAYLELRSLRSDDSAVYYCARVLFYYDRSGNYLPEDYFDYWGQGTLVTVSS
chain 2: QSVLTQPPSVSGAPGQRVTISCTGSSANIGAGYDVHWYQQLPGTAPRLLIYGNTNRPSGVPDRFSGSKSGTSASLAITGLQAEDEGDYYCQSYDSSLSALYVFGTGTKVTVL
B11: C5138 (protein)
chain 1: QVQLVESGGGVVQPGRSLRLSCAASGFTFANYGMHWVRQAPGKGLEWVAVISFDGSDTYYADSVKGRFTISRDNSKNRLYLQMNSLRPEDTALYYCAKGEWYASSWFGVFFDYWGQGTLVTVSS
chain 2: EIVMTQSPTILSVSPGERATLSCRASQNVSNNLAWYQQKPGQAPSLLIYDASTRATGFPARFSGSGSGTEFTLTVSSLQSEDFAVYYCQQYTKRPYTFGQGTKLEIK
B12: C5139 (protein)
chain 1: QVQLVQSGSELKKPGASVKVSCKASGYSFTSYALNWVRQAPGQGLEWMGWINTNTGIPTYAQGLTGRFVFSLDTSVSTAYLQISSLEAVDTAVYYCSRERYSNSWYLPEIYDYWGQGTLVTVSS
chain 2: EIVMTQSPATLSVSPGERATLSCRASQSVSSNLAWYQQKPGQAPRLLIYGASTRATGIPARFSGSGSGTEFTLTISSLQSEDFAVYYCKQYSSWPTFGQGTKLEIK
B13: C5036 (protein)
chain 1: QVQLVQSGAEVKKPGSSVKVSCKASGGTFTNFAISWVRQAPGRGLEWMGGIIRLFDSEKYAQKFQGRMTITADESTNTAYMELSRLTFEDTGVYYCARAPPLTLRTTVTISAFDVWGPGTMVTVSS
chain 2: DIVMTQSPDSLAVSLGERATINCKSSQSVLYSSNNKNYLAWYQQKPGQPPKLLIYWASTRESGVPDRFRGSGSGTDFTLTITSLQAEDVAVYYCQHYYGTPLFGGGTKVEIK
B14: C5055 (protein)
chain 1: QVQLQESGPGLVKPSETLSLTCTVSGVSISTYYWSWIRQSPGKGLEWIGFLYYSGTTNYNPSLKSRVAISVDTSKNQFSLKLTSLTAADTAVYYCARGRGNCSGGTCYGGDYFDSWGQGTLVTVSS
chain 2: DIQMTQSPSTLSASVGDRVTITCRASQSIGSWLAWYQQRPGKAPKLLIYDASSLESGVPSRFSGSGSGTEFTLTISSLQPDDFATYYCQQYDTYFTFGPGTKVDIK
B15: C5328 (protein)
chain 1: EVQLVESGGGLVQPGGSLRLSCAASGITFSRYWMHWVRQAPGKGLVWVSRINSDGSIRSYADSVKGRFTISRDNAKNTLFLQMNSLRAEDTAVYYCARDLTYGGNVDYWGQGTLVTVSS
chain 2: NFMLTQPHSVSESPGKTVTISCTGSGGSIASNYVQWYQQRPGSAPTTVIYEDNQRPSGVPDRFSGSIDSSSNSASLTISGLKTEDEADYYCQSYDGSIHVVFGGGTKLTVL

How the values were obtained:
[1] = target: SARS-CoV-2 Omicron BA.1 spike pseudovirus; test: pseudovirus neutralization IC50; higher = weaker neutralization
Method: (§1)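 Single-round luciferase reporter pseudovirus mixed with antibody dilutions and put on HT1080-ACE2 clone 14 cells for 48 h; signal relative to no-antibody wells, four-parameter fit.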

[2] = target: SARS-CoV-2 Omicron BA.4/5 spike pseudovirus; test: as above
Method: as §1

[3] = target: SARS-CoV-2 Wuhan-Hu-1 spike pseudovirus; test: as above
Method: as §1

[4] = target: SARS-CoV-2 Wuhan-Hu-1 spike receptor-binding domain; test: ELISA binding EC50; higher = weaker binding; ELISA of recombinant human antibody on coated antigen, from 10 µg/ml in fourfold dilutions; four-parameter fit.

Binder	pseudovirus neutralization IC50 [1] [ng/mL]	pseudovirus neutralization IC50 [2] [ng/mL]	pseudovirus neutralization IC50 [3] [ng/mL]	ELISA binding EC50 [4] [ng/mL]
B1	> 1000	> 1000	> 1000	9.46
B2	> 1000	> 1000	683	8.3
B3	> 1000	> 1000	1.91	9.84
B4	1.91	10.4	1.52	2.87
B5	> 1000	> 1000	> 1000	4.36
B6	> 1000	> 1000	> 1000	549
B7	> 1000	> 1000	> 1000	5.4
B8	390	524	401	2.99
B9	25.6	87.2	53.5	3.71
B10	744	716	141	3.44
B11	> 1000	> 1000	> 1000	18.1
B12	> 1000	> 1000	> 1000	11.6
B13	> 1000	> 1000	1.68	4.56
B14	–	351	2.36	3.32
B15	–	–	–	5.72
